Measurements published in PubChem BioAssay AID686979 (National Center for Advancing Translational Sciences (NCATS), 2013).
Where “and” joins values, the source holds several entries; their conditions need not be identical. Identical values can stand only once. About 50,000 (12%) of roughly 420,000 compounds were called active. The inconclusive results got no clear call from the source; some entries with a clear call stand among them for comparison. Calls follow the shape of the dose curve; as a rule, active = well fitted inhibition curve with a large enough effect; inconclusive = small, poorly fitted or top-dose-only effect; inactive = flat fitted curve, though single readings scatter. A potency beside an inconclusive call is a rough fit, not a confirmed value.

experiment: qHTS for Inhibitors of human tyrosyl-DNA phosphodiesterase 1 (TDP1): qHTS in cells in presence of CPT; conditions: chicken DT40 Tdp1-/-;hTDP1 cells + 20 nM CPT, ATP luminescence, 48 h; activity change, negative = growth inhibition: at 46.2 µM (top of the series); also: nearly all actives have a fitted effect of over 55% in size
Procedure, shortened: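 Chicken DT40 Tdp1-/- cells complemented with human TDP1, 400 cells/well, exposed to compounds plus 20 nM camptothecin for at least 48 h at 37 C; viability read as ATP content by CellTiter-Glo luminescence.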
% is scaled to controls: 0 for no effect and ±100 for the full control effect; potency is read from the fitted curve at half-maximal effect; tags tell the direction and shape of the fitted curve.

With `CCCCCCN1CCN(C2CN(Cc3ccc(F)cc3)S(=O)(=O)C2)CC1` (stereo unspecified) as the compound, how does the Potency read?
Its Potency is inconclusive: 18.4 µM [inhibitor, single point].

With `COc1cccc(-c2ccc3c(c2)O[C@H](CN(C)C(=O)c2ccccc2F)[C@H](C)CN([C@H](C)CO)S3(=O)=O)c1` as the compound, how does the Potency read?
Its Potency is inconclusive: 20.6 µM [inhibitor, single point].

Which Potency does the source give for `COc1cccc(CN(Cc2cccnc2)S(=O)(=O)c2ccc(-n3cnnn3)c(C)c2)c1OC` here?
The Potency was inconclusive: 16.4 µM [inhibitor, partial curve, poor fit].

Which Potency does the source give for `Cc1cccc(-n2ncc3c(N4CCOCC4)ncnc32)c1` here?
Its Potency is inconclusive: 20.6 µM [inhibitor, partial curve].

For `Cc1ccc(CNC(=O)Cc2c(C(=O)O)c(C)cn2C)cc1`, which “activity change, negative = growth inhibition” value is on record?
The value was inactive: 1.51%.

With `CCCCn1c(=O)c2oc3ccccc3c2n(CC(=O)Nc2cc(C)ccc2C)c1=O` as the compound, how does the Potency read?
The Potency was active: 11.6 µM.

With `COc1ccc(CN2CCn3ncc(C(=O)Nc4ccc(Cl)cc4Cl)c3C2=O)cc1` as the compound, how does the Potency read?
Its Potency is inconclusive: 20.6 µM [inhibitor, single point].

Which Potency does the source give for `COc1ccc(C(=O)c2sc(NC(C)C)nc2N)cc1OC` here?
The Potency was inconclusive: 29.1 µM [inhibitor, single point].

With `COc1ccc(/C=C/C(=O)N2CCN(c3ccccn3)CC2)c(OC)c1OC` as the compound, how does the Potency read?
The Potency was inconclusive: 29.1 µM [inhibitor, single point].

With `Cc1c(C(=O)N2CCCCC2)c(S(=O)(=O)N2c3ccccc3CC2C)c(C)n1C` (stereo unspecified) as the compound, how does the Potency read?
The Potency was inconclusive: 23.1 µM [inhibitor, single point].

For `CCOC(=O)C1CCN(C(=O)CSc2c3c(nc4ccccc24)CCC3)CC1`, which Potency is on record?
Its Potency is inconclusive: 29.1 µM [inhibitor, single point].

For `CC(C)=CCn1c2ccc(NC(=O)Nc3ccc(N(C)C)cc3)cc2c(=O)n1C`, which Potency is on record?
The Potency was inconclusive: 20.6 µM [inhibitor, single point].

With `COc1cc(OC)cc(C(=O)NC(=S)NCc2ccco2)c1` as the compound, how does the Potency read?
The Potency was inconclusive: 35.5 µM [inhibitor, single point].

For `Nc1nc(-c2ccco2)nc(N2CCCCC2)n1`, which “activity change, negative = growth inhibition” value is on record?
The value was inactive: -2.31%.

Which Potency does the source give for `COc1ccc(OC2CCN(S(=O)(=O)c3cccc(F)c3)CC2)cc1` here?
Its Potency is “inactive and inconclusive: 13 µM [inhibitor, partial curve]”.

For `CCc1ccc(OCC(=O)Nc2ccc(S(=O)(=O)Nc3onc(C)c3C)cc2)cc1`, which “activity change, negative = growth inhibition” value is on record?
The value was inactive: -12.3%.

With `COc1ccc(C2(CN(C(C)=O)C(C)=O)CCCC2)cc1OC` as the compound, how does the Potency read?
The Potency was inconclusive: 23.1 µM [inhibitor, single point].

With `CCN=C1S/C(=C\c2ccc(O)c(OCC)c2)C(=O)N1CC` as the compound, how does the Potency read?
The Potency was active: 25.9 µM.

For `COc1ccc(C)cc1NC(=O)C(NS(=O)(=O)c1cccs1)c1ccccc1` (stereo unspecified), which “activity change, negative = growth inhibition” value is on record?
The value was inactive: -19.5%.

For `COCC(C)n1c(COc2ccccc2F)nnc1SCC(=O)c1c(N)n(C)c(=O)n(C)c1=O` (stereo unspecified), which “activity change, negative = growth inhibition” value is on record?
The value was inactive: -28.1%.

For `CC1=CC(=O)C2C(C)(C)CCC[C@@]2(C)[C@@]1(O)CCc1ccoc1` (stereo partly specified), which Potency is on record?
Its Potency is inconclusive: 23.1 µM [inhibitor, single point].

For `COc1ccc2nc(NC(=O)C3CCCN(S(=O)(=O)c4cccs4)C3)sc2c1` (stereo unspecified), which Potency is on record?
The Potency was inconclusive: 25.9 µM [inhibitor, single point].

For `CCOc1ccc(CN2C(=O)c3ccccc3Sc3ccc(C(=O)NCc4ccc5c(c4)OCO5)cc32)cc1`, which “activity change, negative = growth inhibition” value is on record?
The value was inactive: 10.5%.

For `CC1=CC(C)(C)N=C(Nc2nc(C)c3cc(C)cc(C)c3n2)N1`, which Potency is on record?
The Potency was active: 14.6 µM.

For `Cc1ccc(N(Cc2ccccc2)C(=O)c2ccc(F)cc2)cc1`, which Potency is on record?
Its Potency is active: 20.6 µM.

Which “activity change, negative = growth inhibition” value does the source give for `CCCCNC(=O)Oc1ccc(C(=O)N2c3ccccc3NC(=O)C2C)cc1` (stereo unspecified) here?
The value was inactive: -20.2%.

Which “activity change, negative = growth inhibition” value does the source give for `CC(=O)Nc1ccc(-c2csc(NCc3ccco3)n2)cc1` here?
Its value is inactive: -13.2%.

For `Cc1ccccc1NC(=O)Nc1csc2c1CCCC2`, which Potency is on record?
The Potency was inconclusive: 29.1 µM [inhibitor, single point].

Which Potency does the source give for `COc1ccc(C(=O)CSc2nc3cc(C(=O)NC4CCCC4)ccc3c(=O)n2CC2CCCO2)cc1` (stereo unspecified) here?
Its Potency is inconclusive: 14.6 µM [inhibitor, partial curve].

Which “activity change, negative = growth inhibition” value does the source give for `O=C(COC(=O)CNC(=O)c1ccc(Cl)cc1Cl)Nc1cccc(S(=O)(=O)N2CCCC2)c1` here?
Its value is inactive: -13.2%.

Which “activity change, negative = growth inhibition” value does the source give for `CC(C)Cn1c(-c2ccncc2)n[nH]c1=S` here?
The value was inactive: -1.4%.

With `CCCCNCc1cc2ccccc2o1` as the compound, how does the “activity change, negative = growth inhibition” value read?
The value was inactive: -13.4%.

With `Cc1ccc(C)c(C(=O)N2CCN(c3ncccn3)CC2)c1` as the compound, how does the “activity change, negative = growth inhibition” value read?
The value was inactive: -2.17%.

With `COc1cc2c(cc1OC)CN(C(=O)c1ccc(-c3ccccc3)cc1)CC2` as the compound, how does the Potency read?
The Potency was inconclusive: 16.4 µM [inhibitor, single point].

Which Potency does the source give for `C[C@H](NC(=O)c1nc[nH]c1C(=O)N1CCN(C(=O)OC(C)(C)C)CC1)C(=O)OCc1ccccc1` here?
The Potency was inconclusive: 20.6 µM [inhibitor, single point].

With `COC(=O)c1cc2oc3ccccc3c2n1CC(=O)Nc1cccc(SC)c1` as the compound, how does the Potency read?
Its Potency is inconclusive: 18.4 µM [inhibitor, partial curve].

Which “activity change, negative = growth inhibition” value does the source give for `CCOc1ccc2oc(C(=O)N3CCCN(C)CC3)c(C)c2c1` here?
The value was inactive: -14.3%.

For `C=Cc1ccc(Cn2c(C)c(C(=O)NCc3ccc4c(c3)OCCO4)sc2=O)cc1`, which Potency is on record?
Its Potency is inconclusive: 18.4 µM [inhibitor, single point].

With `CN(C(=O)c1ccc(NC(=O)c2ccco2)cc1)c1ccccc1` as the compound, how does the Potency read?
The Potency was inconclusive: 11.6 µM [inhibitor, partial curve].

Which Potency does the source give for `COc1cccc(CN(C)C(=O)CNC(=O)c2sc3ccccc3c2Cl)c1OC` here?
Its Potency is inconclusive: 29.1 µM [inhibitor, single point].

With `O=C(NC(=S)Nc1ccc(CN2CCCCC2)cc1)c1cccc(OCc2ccccc2)c1` as the compound, how does the Potency read?
Its Potency is active: 9.2 µM.

For `COc1ccc(-c2cc(-c3nnc(COC(=O)c4ccc(O)cc4)o3)c3ccccc3n2)cc1OC`, which Potency is on record?
The Potency was inconclusive: 20.6 µM [inhibitor, single point].

With `CCCC(=O)Nc1nc(-c2ccc(Cl)s2)cs1` as the compound, how does the Potency read?
Its Potency is active: 16.4 µM.

With `CCN(CC)c1ncnc2c1ncn2[C@H]1CN(Cc2ccc(F)cc2)C[C@@H](CO)O1` as the compound, how does the activity change, negative = growth inhibition read?
The activity change, negative = growth inhibition was inconclusive: -31.2% [inhibitor].

With `COc1ccc(NC(=O)CN(C)C(=O)C(C)Oc2ccc(Br)cc2)cc1` (stereo unspecified) as the compound, how does the “activity change, negative = growth inhibition” value read?
Its value is inactive: -0.404%.

With `Cc1cccc(C(=O)O/N=C(\N)Cc2ccc([N+](=O)[O-])cc2)c1` as the compound, how does the Potency read?
The Potency was active: 25.9 µM.

With `COC(=O)CS(=O)(=O)c1cccc2cccnc12` as the compound, how does the Potency read?
The Potency was inconclusive: 18.4 µM [inhibitor, single point].

With `CCCOc1cccc(C(=O)Nc2cc(-c3nc4ccccc4[nH]3)ccc2C)c1` as the compound, how does the Potency read?
Its Potency is active: 16.4 µM.

With `N#CC1=C(N)S[C@H](C(=O)C23CC4CC(CC(C4)C2)C3)[C@H]1c1ccncc1` as the compound, how does the activity change, negative = growth inhibition read?
The activity change, negative = growth inhibition was inconclusive: -38.2% [inhibitor].

Which “activity change, negative = growth inhibition” value does the source give for `CCC(C)c1ccccc1NC(=O)CN(CC)CC(=O)Nc1ccc2c(c1)OCCO2` (stereo unspecified) here?
The value was inactive: -22.2%.

Which Potency does the source give for `Cc1ccc(/C(=N\O)c2oc3c(C)c4oc(=O)cc(C)c4cc3c2C)cc1` here?
Its Potency is active: 18.4 µM.

For `CCc1cccc(NC(=O)CCCN2C(=O)C(c3ccccc3)Oc3cccnc32)c1` (stereo unspecified), which Potency is on record?
Its Potency is inconclusive: 29.1 µM [inhibitor, single point].

With `COc1ccccc1C(=O)C1CCCN(C(=O)c2snnc2C)C1` (stereo unspecified) as the compound, how does the Potency read?
The Potency was inconclusive: 0.0046 µM [inhibitor, full curve, poor fit].

Which Potency does the source give for `COc1ccc(CN2CCc3cc(OC)c(OC)cc3C2)cc1O` here?
Its Potency is inconclusive: 29.1 µM [inhibitor, single point].

With `OCCCn1c(CCCNc2nc(-c3cccc(Br)c3)cs2)nc2cc(Cl)c(N3CCCCC3)cc21` as the compound, how does the Potency read?
Its Potency is inconclusive: 29.1 µM [inhibitor, single point].

For `CC(=O)Nc1ccc(-c2csc(NC(=O)c3ccc(C)o3)n2)cc1`, which Potency is on record?
Its Potency is active: 13 µM.

Which “activity change, negative = growth inhibition” value does the source give for `CC(=O)N1CC(C)Oc2ccc(S(=O)(=O)NC(CC(=O)O)c3ccccc3)cc21` (stereo unspecified) here?
The value was inactive: -0.938%.

With `CCn1c(SCC(=O)NC2CCCCC2)nnc1C(CO)NC(=O)c1ccccc1` (stereo unspecified) as the compound, how does the “activity change, negative = growth inhibition” value read?
Its value is inactive: -9.14%.

For `COc1ccc(NC(=O)COc2ccc(S(=O)(=O)N3CCOCC3)cc2C)cc1OC`, which “activity change, negative = growth inhibition” value is on record?
Its value is inactive: -25.5%.

For `CCN(CC)S(=O)(=O)c1ccc2nc(NC(=O)c3cccs3)sc2c1`, which Potency is on record?
The Potency was inconclusive: 14.6 µM [inhibitor, single point].

For `Cc1ccc(Cl)cc1N1CCN(C(=O)c2cc3c(=O)n(C)c4ccccc4c3n2C)CC1`, which Potency is on record?
Its Potency is active: 18.4 µM.

Which Potency does the source give for `Cc1ccc2[nH]c3c(N4CCOCC4)ncnc3c2c1` here?
Its Potency is inconclusive: 23.1 µM [inhibitor, single point].

With `CCOc1ccc(OCc2ccc(C(=O)NC(C)C)o2)cc1` as the compound, how does the activity change, negative = growth inhibition read?
Its activity change, negative = growth inhibition is inconclusive: -33% [inhibitor].

With `CCOc1ccc2ccccc2c1/C=N/n1cncn1` as the compound, how does the Potency read?
Its Potency is inconclusive: 29.1 µM [inhibitor, single point].

For `CCN(CC)C(=O)c1sc(NC(=O)c2ccoc2C)c(C(=O)OC)c1C`, which Potency is on record?
The Potency was inconclusive: 23.1 µM [inhibitor, single point].

With `CCCCC(=O)N1CC(=O)Nc2ccc(F)cc2C1c1ccc(F)cc1` (stereo unspecified) as the compound, how does the Potency read?
The Potency was “inactive and inconclusive: 29.1 µM [inhibitor, single point]”.

Which Potency does the source give for `CCNC(=O)/C=C1\NC(C)(C)Cc2c1ccc1ccccc21` here?
Its Potency is inconclusive: 29.1 µM [inhibitor, single point].

For `Cn1c(=O)c2c(nc(Br)n2CCSc2nnnn2-c2ccccc2)n(C)c1=O`, which Potency is on record?
Its Potency is inconclusive: 18.4 µM [inhibitor, partial curve].

For `CCNC(=O)c1c(NC(=O)c2cc(-c3cc(C)cc(C)c3O)n[nH]2)sc2c1CCCC2`, which Potency is on record?
The Potency was inconclusive: 5.8 µM [inhibitor, full curve].

Which “activity change, negative = growth inhibition” value does the source give for `Cc1ccc(CCNC(=O)CN2C(=O)COc3ccc(S(=O)(=O)N4CCCC4)cc32)cc1` here?
The value was inactive: -28.4%.

With `Cc1cc(C)cc(NC(=O)c2nnn(Cc3cccc(Br)c3)c2N)c1` as the compound, how does the Potency read?
The Potency was inconclusive: 29.1 µM [inhibitor, single point].
